This is one part of the list.

In this experiment the test system is PF3D7_0420300 AP2 domain 1 (GST-tagged). Put plainly: gcPBM binding intensity (ln(normalized median fluorescence intensity)); higher = stronger DNA binding. A digest of the protocol:
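Alexa488 anti-GST antibody, scanned at 488 nm, detected GST-tagged P. falciparum DNA-binding domains that had been expressed in E. coli and incubated for 1 h on an Agilent 4 × 180k array. The array carried primer-extended double-stranded 36-bp intergenic genomic probes and negative controls. Binding intensity is the highest Masliner-normalised natural-log median intensity across replicate spots of either orientation of each probe.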
“TTTTTATTTATATGTATACACACTTTAATTAAAAGT [CACACA_site2525]”: the “gcPBM binding intensity (ln)” value came to 9.31.
Take “TGTTATATATAAATTTGTACACATAAATATTTTTAC [XGTACX_site5873]”: the “gcPBM binding intensity (ln)” value worked out at 9.25.
In the case of “AATAAAAAAAAATGCACACATATATATATATATATA [CACACA_site2421]” it was 9.26; in that of “CAGAATATATTCTATACATGCAATAGGAAATGTAGC [TGCATGCA_site110]”, 9.54; in that of “ATTGCGTGATAATAATGTACAAAAAGTAATTTATAT [XGTACX_site8339]”, 9.2.
Regarding “AATATATAATTTTTAACACACAAAAAAAAAAAAAAT [CACACA_site3581]”, the “gcPBM binding intensity (ln)” value is 9.64.
To “AAAAAAAAAAAAAAAACACACACATATAATATATTT [CACACA_site8369]” belongs 9.74; to “TCATTCTAAATATAAACACACATAAATATATACATT [CACACA_site3354]”, 9.54; to “GGTACGTATTTCAATGCATGTCCATGTACATATAAA [TGCATGCA_site208]”, 9.3.
On to “CATACGTTCTAATATATACACACCTGGTATTAATTA [CACACA_site2221]”, for which the “gcPBM binding intensity (ln)” value amounted to 9.44.
For “CTATAATGTTTCTTTCAACACACAAAAAATGAACAC [CACACA_site8438]”, the “gcPBM binding intensity (ln)” value is 9.56.
In the case of “TAAAAAATTTTCGCGTGTACGCAAGAAAAAAAAAAT [XGTACX_site3058]” it was 9.15; in that of “TTTTTGCCATATTACACACACACATGGAAACCCCCT [CACACA_site4994]”, 10.1; in that of “TATATATTTAGTTAGTGTACAAGTTATTTAGTAGTT [XGTACX_site5133]”, 9.22.
For “AAAAAAATAATGTATATATAAATTTATTTACATATG [GTGCAC_negctrl_site107]”, the “gcPBM binding intensity (ln)” value came to 9.07.
For the sequence “TCTTTTAACAAATAATAAGCTAATTTATATTATTAT [GTGCAC_negctrl_site655]”, the “gcPBM binding intensity (ln)” value is 8.9.
To “TAAAAAATAAGATATACACACATATATTTATTTATA [CACACA_site7158]” belongs 9.33; to “CAAATAAATTAAAGGTGTACTTTTATAGTTACGACA [XGTACX_site3926]”, 9.13.
As to “CATATTTTCTTGTGTACACATTTATTTTATACTATA [CACACA_site6032]”, the “gcPBM binding intensity (ln)” value turned out to be 9.74.
In the case of “TCAATAAGATTATAAAGTACTTTTGAAGATATTATA [XGTACX_site7489]” it was 8.87.
In the case of “TTTCTTATTTTTTTCACACACTAAACATTTCAAATG [CACACA_site5259]” it was 9.35; in that of “AAATAAATAAATAAATGTACACATATATATATATAT [XGTACX_site7787]”, 9.27; in that of “AAATATTTAAATATTATGTATGATTATATATATATA [CACACA_negctrl_site590]”, 9.15.
To “AAAGAGAACATAAGTACACACATGTTCTTTTAGTAA [CACACA_site2824]” belongs 9.31; to “AAAGTAAAAACACATACATGCATATACACATATAAC [TGCATGCA_site341]”, 9.66; to “AAAAAAAAAAAAAAAACACACAAAAGCAAGAAAAAC [CACACA_site3198]”, 10.1.
For “ATAAATATGTATTGCTGTACATATATATAAATTATC [XGTACX_site8411]”, the “gcPBM binding intensity (ln)” value was found to be 9.12.
To “AATAGGAAAACCTATACACACTTTAAAAAAAATATA [CACACA_site4977]” belongs 9.3.
In the case of “TACATATATGATAAAAGTACATATAAATATACATAA [XGTACX_site3804]” it was 9.37.
“GAAATAAAAGATGGTTGTACACCGTTTTCTCATATA [XGTACX_site5368]”: the “gcPBM binding intensity (ln)” value turned out to be 9.21.
To “TATATGAATAAACATTGTACGTAAATATTAACTATC [XGTACX_site543]” belongs 9.41; to “AAGATGATAAAATATGTACACACAGTTTATACATTT [CACACA_site9341]”, 9.38.
Consider “TTATATATTAAGAAATGTACGAAAAAAAAAATTATA [XGTACX_site3893]”, for which the “gcPBM binding intensity (ln)” value was found to be 9.2.
On to “CGCATAAAGACAAGAACACACATATAGATTGTAGTA [CACACA_site3693]”, for which the “gcPBM binding intensity (ln)” value stood at 9.32.
To “AAAAAAAATTATATATGTACTTATTAATCCTTTTAT [XGTACX_site1387]” belongs 9.04; to “AATTATTTATTGAGAGTGCAACAAATTATTTCAAAT [GTGCAC_site9461]”, 9.11.
To “ACATTTTAAATACGATGTACTTGAGTTTTTTTTAAA [XGTACX_site5833]” belongs 9.11.
As to “TTTTTTTGCATGAGCAATAAAAAAGGCTTGTTCAAA [CACACA_negctrl_site1615]”, the “gcPBM binding intensity (ln)” value worked out at 8.45.
In the case of “GTAGATATTTATTGAGTGCATGTTATAAAGGGAAAA [GTGCAC_site9481]” it was 9.22; in that of “TTTTTATTTTTTTACAGTACATAAAATAAATAAATA [XGTACX_site6596]”, 8.84; in that of “TTTTTTTTATGGAAACGTACATACATACATTAAAGA [XGTACX_site7401]”, 8.91.
In the case of “TATTTATATATTTATGCATGTTATAGGCAAAAATGT [TGCATGCA_site397]”, the “gcPBM binding intensity (ln)” value was 9.08.
With “TATATTGATGATGATAGTACGTATGAATACAAAAAA [XGTACX_site4]”, the “gcPBM binding intensity (ln)” value was 9.2.
On to “CATAATAAGTATAACGTTAGTTACAAACAGCTTGTT [CACACA_negctrl_site937]”, for which the “gcPBM binding intensity (ln)” value was found to be 9.39.
In the case of TATTATTCAAAATTTGTGCACAAAATTAAAGGAACA it was 9.25; in that of “TTTTTAAATAAATGTTTTTATTATATACATATCAAT [TGCATGCA_negctrl_site423]”, 9.04; in that of “AAAATAATGTATATAGTGCAAATGAAAACGAAAAAA [GTGCAC_site9455]”, 9.77.
As for “TTGGTGATATTTTTCTCACACATTTACCAGAGATGT [CACACA_site4684]”, the “gcPBM binding intensity (ln)” value is 9.22.
Take “TTTGTTTTTTTGAGAGTGCAATATATATAAAAAGGG [GTGCAC_site9691]”: the “gcPBM binding intensity (ln)” value is 9.02.
To “TATAAAATTCTGACTTGTACATGTGAAAAATAATTA [XGTACX_site1396]” belongs 9.06; to “TATATATATATATAATGTACACATTTTTATAACTAT [XGTACX_site5714]”, 9.16; to “AAAATACAATTTCTAGCACACAAAATATTATTATAA [CACACA_site9056]”, 9.32.
In the case of “GCGTTGTTTTTAAAAAGTACATTTTTATATAAGTTA [XGTACX_site8780]”, the “gcPBM binding intensity (ln)” value stood at 9.22.
To “AAAGATGGAAAAAAAAATTTGTGTGTTGAAAGATAT [GTGCAC_negctrl_site19]” belongs 9.56; to “CTTAATATATGTGGCACACATGTGGAGTCCTATTAA [CACACA_site4281]”, 9.33.
In the case of “AAAAAAATATTAATGTGTACATAATAATAACATATA [XGTACX_site8319]” it was 9.34; in that of “AAGAGTAAAATATGGTTGCACTAAAAATATATATTT [GTGCAC_site9484]”, 9.22.
Take “TTATAGAGCTTATTCACACATACATATGTATTTATA [CACACA_site5775]”: the “gcPBM binding intensity (ln)” value is 9.3.
To “TAAAACATATAAAGGTGTACGCCTTTTTGTATCAAT [XGTACX_site6064]” belongs 9.24; to “ATAATAAAAATATACTGTACATTTGTAAATTCTTTT [XGTACX_site4655]”, 9.2.
In the case of “TATATTTGTTGACACACACACAAAAAAAAAAAAAAA [CACACA_site7211]” it was 9.41; in that of “GTCTACTACACTAAATGTACAAGAAAAAAGAAAAAA [XGTACX_site4660]”, 9.11; in that of “AACTTATTTAAATTCACACATATATAAAATACTTAT [CACACA_site4394]”, 9.22.
Take “ATAAAGATATGACACACACACATATTATAGATATAT [CACACA_site7434]”: the “gcPBM binding intensity (ln)” value was 10.1.
Regarding “GATAACATAATATGTTGTACATAAAAATTTTTATCA [XGTACX_site1969]”, the “gcPBM binding intensity (ln)” value turned out to be 9.11.
On to “ATCAATTTAATTTATTGTACTTGTTTGTTTTTTTAT [XGTACX_site7544]”, for which the “gcPBM binding intensity (ln)” value was 9.65.
In the case of “ACATATGACTATAATACACACTTGTATTATTAATAT [CACACA_site6951]” it was 9.34.
In the case of “ATTTTAATTACATATACACACAAAGGTTCATAACAA [CACACA_site9008]” it was 9.51.
To “ATTATTTTATTATAGTGTACTTTTTTAATCAAAGGA [XGTACX_site8921]” belongs 9.08.
“AATTTTATTACTTTTACACACCTATATATTATTCAT [CACACA_site3273]”: the “gcPBM binding intensity (ln)” value is 9.75.
Take “TTTTAAAAAAAATATAAAAAAAGAGGAGGGATGGTA [GTGCAC_negctrl_site35]”: the “gcPBM binding intensity (ln)” value is 9.45.
To “TACTCATAATATTGATAATTAAAAAGATAAACTATT [XGTACX_negctrl_site299]” belongs 8.98.
In the case of “TAATTTAAACAAAAAAGTACAAATTTCTTTTTATTA [XGTACX_site5244]” it was 8.88; in that of TATGTTTTTACGTGTGTGCACTTTGTAGAGATAAGT, 9.48; in that of “GCCAAAAGGATATGCACACACACACCCATATATATA [CACACA_site2198]”, 10.2.
In the case of “CATTATCATGTTTTTTGTACTCATAATAAAAAGCAG [XGTACX_site2056]” it was 8.92; in that of “CAAGGAACCGGACACACACACATAAATGTATTTATA [CACACA_site4574]”, 9.82.
Take “TATATATAGAAACACACACACACCAAAGCGTAGCGC [CACACA_site62]”: the “gcPBM binding intensity (ln)” value is 10.
To “ATTTACAAAAGGAAAGTGCAAACATGTGATTAAACA [CACACA_negctrl_site714]” belongs 9.48; to “AAAAATGAATTATTTTGTACATATATATATATATAT [XGTACX_site3410]”, 9.19.
Turning to “AATAATTGTTAAAGTTGTACTATACGTATATAAGAA [XGTACX_site1432]”, the “gcPBM binding intensity (ln)” value is 9.31.
“ATATTTTTATTTTCTTTACACACCACATAATTTTTT [CACACA_site4060]”: the “gcPBM binding intensity (ln)” value is 9.82.
In the case of “TCTAACAACATGCGCACACACATGAATATTCATATT [CACACA_site1540]” it was 9.62; in that of “ATTAGATATGTAAACTAAAATTATATTCATGATAAT [TGCATGCA_negctrl_site182]”, 9.19.
Regarding “TTTCTTTTACATATTTGTACATATATAAATTTATAT [XGTACX_site1787]”, the “gcPBM binding intensity (ln)” value stood at 9.27.
In the case of “TCACATCTTATATACTGTACATTTCGAATATAAATT [XGTACX_site2508]”, the “gcPBM binding intensity (ln)” value amounted to 9.35.
As for “TTCTTTAATACTTATTGTACAATATAATAATCACAA [XGTACX_site6364]”, the “gcPBM binding intensity (ln)” value was determined as 9.12.
In the case of “TACTATATAAGTAAGGCATGCATGCCGATTTTTTTA [TGCATGCA_site100]”, the “gcPBM binding intensity (ln)” value came out at 9.09.
Turning to “AAAAAAAAAAAAATATGTACTTATTTTTATGTTAAA [XGTACX_site8802]”, the “gcPBM binding intensity (ln)” value turned out to be 8.84.

The values are drawn from the supplement of paper PMC11417369.
